# Whole data set: some 110,000 compounds, median “z-score” near -0.1, cut for the highest 2% near 2. Some of the results follow. Calls of active or inactive are those of the source.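 The calls were made as follows: active = z-score in the third read window above 3 or below -3; inactive = the rest.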
# Molecular target: Metabotropic glutamate receptor 8 (Rattus norvegicus) (UniProt P70579)
# Test: mGluR8 Gi/Go-coupled signaling modulation – cell-based, rat, thallium flux, HTS, primary screen (AID 488969)
# Conditions: HEK293 rat mGluR8, GIRK (G protein-gated inwardly rectifying potassium channel) thallium flux, FluoZin2; at 10 µM; stronger effect = higher value; submaximal glutamate (EC20) added with thallium
# Chain of UniProt P70579 (P70579 whole entry, looked up): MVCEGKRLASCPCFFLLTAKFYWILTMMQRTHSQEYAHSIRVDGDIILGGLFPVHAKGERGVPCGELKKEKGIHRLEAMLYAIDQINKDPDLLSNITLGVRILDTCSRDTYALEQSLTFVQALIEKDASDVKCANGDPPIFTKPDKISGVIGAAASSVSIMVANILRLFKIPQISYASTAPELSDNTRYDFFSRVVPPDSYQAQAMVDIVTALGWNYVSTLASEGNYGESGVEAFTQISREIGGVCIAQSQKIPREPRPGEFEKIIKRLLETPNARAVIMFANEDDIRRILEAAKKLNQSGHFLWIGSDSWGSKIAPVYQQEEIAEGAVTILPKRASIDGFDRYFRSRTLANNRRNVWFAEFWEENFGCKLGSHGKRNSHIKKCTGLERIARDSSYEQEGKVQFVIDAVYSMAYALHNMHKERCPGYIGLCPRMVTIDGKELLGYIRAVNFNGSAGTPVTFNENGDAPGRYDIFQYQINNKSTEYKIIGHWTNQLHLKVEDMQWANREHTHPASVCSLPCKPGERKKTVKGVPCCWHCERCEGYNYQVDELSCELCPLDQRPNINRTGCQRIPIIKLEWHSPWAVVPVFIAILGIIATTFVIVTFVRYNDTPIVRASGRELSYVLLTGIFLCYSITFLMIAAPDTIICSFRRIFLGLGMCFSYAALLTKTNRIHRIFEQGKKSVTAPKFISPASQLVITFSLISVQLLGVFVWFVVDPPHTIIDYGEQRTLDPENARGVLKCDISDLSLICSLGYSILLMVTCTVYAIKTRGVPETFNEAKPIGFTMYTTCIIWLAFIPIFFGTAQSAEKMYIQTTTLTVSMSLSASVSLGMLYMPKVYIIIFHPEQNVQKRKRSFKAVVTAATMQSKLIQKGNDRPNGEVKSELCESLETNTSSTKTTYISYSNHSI
row,SMILES,z-score
1,CC(C)(C)NCc1ccccc1OCc1cccs1,0.423
2,CCN(CC)C(=O)C(C)OC(=O)COc1ccc(Cl)cc1Cl (stereo not drawn),-0.176
3,COc1ccc(S(=O)(=O)N(C)CC(=O)Nc2ccc3c(c2)OCO3)cc1OC,1.01
4,CC(=O)Nc1cccc(Oc2ccc(-c3noc(C)n3)cc2)c1,0.194
5,O=C1CCCC2=C1C(c1cccs1)n1nc(SCc3ccccc3F)nc1N2 (stereo not drawn),-1.01
6,Cc1cc(Nc2ccccc2)nn1C(=O)c1ccc([N+](=O)[O-])cc1,-0.0254
7,CC1CCCN(c2nc3c(c(=O)[nH]c(=O)n3C)n2Cc2ccccc2Cl)C1 (stereo not drawn),-0.901
8,CC(C)OC(=O)C(C)Oc1ccc(C(=O)NCCc2ccccc2)cc1 (stereo not drawn),-0.245
9,COC(=O)c1ccc(Oc2cc(C)nc(SC)n2)cc1,-0.268
10,Cc1ccccc1NC(=O)NCC1CCCO1 (stereo not drawn),0.73
11,O=C(Nc1ccc(Cl)cn1)C1CCCN1S(=O)(=O)c1ccccc1 (stereo not drawn),-0.315
12,O=C(NCc1cccnc1)C1CCCN(S(=O)(=O)c2ccc(Br)cc2)C1 (stereo not drawn),0.0175
13,O=C(c1ccccc1)c1cc(F)c(N2CCOCC2)cc1Cl,0.155
14,COc1ccc(NC(=O)CS(=O)CC(=O)NC2CCCc3ccccc32)cc1 (stereo not drawn),-0.738
15,CCOc1ccc(CNc2ncnc(N)n2)cc1,-0.398
16,CCOC(=O)NN1C(=O)c2ccccc2NC1c1ccc(OC)cc1 (stereo not drawn),-0.117
17,CCCC(=O)Nc1ccc(Cl)c(NC(=O)c2ccc([N+](=O)[O-])cc2Cl)c1,0.901
18,O=c1ccccn1Cc1c(F)cccc1Cl,0.266
19,CCOc1ccc(Nc2nc(NCCN3CCOCC3)nc(OC)n2)cc1,-0.361
20,O=[N+]([O-])c1ccccc1-c1cc(-c2ccccc2O)n[nH]1,-0.676
21,O=C(C1CCC1)N1CCc2cc(S(=O)(=O)Nc3ccc4c(c3)OCO4)ccc21,0.0416
22,CC(C)c1ccc(OCC(=O)NCc2ccco2)cc1,-0.351
23,O=c1[nH]nc(Cc2ccc(Cl)cc2)c2ccccc12,0.0846

row,SMILES,z-score
1,CCC(=O)Nc1cccc(NC(=O)CSc2nnnn2Cc2ccccc2)c1,-0.547
2,Cc1ccc(C(c2nnnn2C2CCCCC2)N2CCc3ccccc32)cc1 (stereo not drawn),-0.876
3,CCCCCCCOC(=O)C1=C(C)Nc2ncnn2C1c1cccs1 (stereo not drawn),-0.256
4,O=C(CN1CCN(Cc2ccccc2F)C1=O)NCCc1ccc(Cl)cc1,-0.0799
5,COc1cccc(/C=N/NC(=O)CCCC(=O)NC2CCCCC2)c1,-0.369
6,Cc1cccc(COc2ccc(/C(O)=C3\C(=O)C(=O)N(CCN(C)C)C3c3ccncc3)cc2)c1 (stereo not drawn),-0.393
7,Cc1[nH]nc2cn[nH]c12,0.0297
8,COc1ccc(-c2cc(CNC(C)=O)on2)cc1,-0.174
9,Cn1cccc1CC(=O)NNC(=S)Nc1ccc(Cl)cc1Cl,0.615
10,c1ccc(-c2noc(C3CCCCC3)n2)nc1,-0.0672
11,CC(C)CCNC(=S)Nc1ccccc1F,0.154
12,CCOc1cc(C(=S)N2CCCCC2)ccc1OCC(=O)NCc1ccccc1,-0.00169
13,CCn1c(/C=C2\C(=O)Nc3ccccc32)nc2ccccc2c1=O,-0.221
14,CCc1ccc(C2C(C(=O)O)c3ccccc3C(=O)N2C)cc1 (stereo not drawn),-0.299
15,O=C(NCc1ccc(F)cc1)C1(c2cccs2)CCOCC1,-0.219
16,COc1ccc(CCN(Cc2cc3cccc(C)c3[nH]c2=O)C(=O)N2CCCC2)cc1OC,0.181
17,Cc1nn(C(=O)c2ccco2)c(C)c1Br,-0.107
18,Cc1cccc(NC(=O)C2CCCN2/C=C/C(=O)C(F)(F)F)c1C (stereo not drawn),0.104
19,O=C(Cc1ccccc1)NCc1ccc(F)cc1,-0.0971
20,Cc1ccc(C(=O)Oc2ccc(-c3nccc(-c4ccccn4)n3)cc2)cc1,-0.114
21,O=C(Nc1nccs1)c1ccc(Cl)cc1[N+](=O)[O-],-0.05
22,Cc1ccccc1N1C(=O)c2sc3nc4c(c(=O)n3c2C1=O)CCC4,0.172
23,COc1ccc(NC(=O)CSc2nc(O)cc(=O)n2C)cc1,0.0146

row,SMILES,z-score
1,CCOC(=O)CC(NC(=O)C1c2ccccc2Oc2ccccc21)c1ccccc1Cl (stereo not drawn),-0.687
2,Clc1ccc(SCc2cc(-c3ccccc3)on2)cc1,-0.103
3,O=C(NCN1CCc2ccccc2C1)c1cnccn1,0.178
4,Cc1ccc(C(=O)NNC(=O)Cc2cccs2)cc1,0.0316
5,O=C(NCCO)c1nc2ccccc2s1,1.28
6,CCOC(=O)NC(=O)/C(C#N)=N\Nc1ccc(Cl)cc1,-0.748
7,Cc1nc(CNS(=O)(=O)c2cccc(F)c2)cs1,-0.136
8,COc1ccccc1CNC(=O)CSc1ccc(C(=O)Nc2ccccc2OC)cc1[N+](=O)[O-],0.0929
9,COC(=O)C1=C(O)C(C(=O)OC)C(c2ccc(C)cc2)C(C#N)(C#N)C1c1ccc(C)cc1 (stereo not drawn),-1.33
10,COC(=O)CCCC[C@H]1SC[C@H]2NC(=O)N[C@]21O,0.0742
11,O=C(O)CSCc1cn2cc(Cl)ccc2n1,0.0981
12,CC1CCCC(C)N1c1nnc(NC(=O)c2cc(-c3ccc(Br)cc3)on2)s1 (stereo not drawn),2.04
13,O=C(NCCNC(=O)c1cccs1)c1ccco1,0.31
14,COC(=O)[C@H](C)NC(=O)Nc1cc(OC)ccc1OC,-0.238
15,N#C/C(=C\c1cn(Cc2ccccc2)c2ccccc12)C(=O)NCc1ccco1,-0.0595
16,CCN(CC)S(=O)(=O)c1ccc(-c2nnc(SCC(=O)Nc3ccc4c(c3)OCO4)o2)cc1,0.536
17,CN1CCCN(C(=O)Cc2c(Cl)cccc2Cl)c2nc3ccccc3nc21,0.275
18,CCn1c2c(c(C)cc1=O)C(=O)CC(C)(C)C2,0.2
19,Cc1cc(C)cc(N2CCCn3c2nc2c3c(=O)n(CC(=O)OCc3ccccc3)c(=O)n2C)c1,-0.428
20,O=C(O)C1C2C=CC(CC2)C1C(=O)O (stereo not drawn),-1.28
21,CCN(CC)S(=O)(=O)c1ccc(N=NC2=C(O)CC(C)(C)CC2=O)cc1,0.244
22,CCSc1cc(N2CCCC2)nc(-c2ccccc2)n1,-0.247
23,COc1ccc(C(=O)NC2CCN(C(=S)NCc3ccco3)CC2)cc1,-0.112

row,SMILES,z-score
1,CSc1nc(SCC(=O)NCc2ccco2)c2c3c(sc2n1)CN(C)CC3,-0.588
2,CCCCSc1nnc(-c2cc(Br)ccc2N)c(=O)[nH]1,0.279
3,Cc1ccc2[nH]c(C)c(CCNC(=O)C3CCCCC3C(=O)OCC(F)(F)F)c2c1 (stereo not drawn),-0.519
4,O=C(c1cnn2cccnc12)N1CCN(Cc2ccc3c(c2)OCO3)CC1,-0.0594
5,O=C(CNCc1ccco1)Nc1ccccc1-n1cccc1,-0.0582
6,CCn1c(COc2ccc(C)cc2)nnc1SCC(=O)Nc1ccc2c(c1)OCCO2,-0.0204
7,CCC(C)(C)NC(=O)C(c1ccc(C)cc1)N(Cc1ccco1)C(=O)CCC(=O)Nc1nccs1 (stereo not drawn),-0.299
8,Cc1ccc(S(=O)(=O)CCSc2cccc(C(=O)Nc3ccccc3C(=O)O)c2)cc1,-0.687
9,c1ccc(C2Oc3ccccc3C3CC(c4cccs4)=NN32)cc1 (stereo not drawn),1.42
10,Cc1ccc(NC(=O)N2CCN(Cc3ccc4c(c3)OCO4)CC2)cc1,-0.449
11,CN(C)S(=O)(=O)Oc1ccsc1C(=O)Nc1cccc(Cl)c1Cl,0.0809
12,CC(C)CNS(=O)(=O)c1ccc(CCC(=O)NCc2cccnc2)cc1,-0.394
13,COc1ccc(S(=O)(=O)Nc2ccc3oc(C)c(C(C)=O)c3c2)cc1,-0.227
14,O=C(Oc1ccc(/C=N/Nc2ccccc2)cc1)c1ccccc1,0.464
15,COc1cccc(/C=N/NC(=O)c2nc(-c3ccccc3)cc(-c3ccccc3)n2)c1,-0.286
16,CCCCCCCN(C(=O)CCl)c1cccc(C)c1,-0.252
17,CN(C)CC/C=C1\c2cc(F)ccc2CSc2ccccc21,1.45
18,CS(=O)(=O)N(CC(=O)NCCSC1CCCCC1)c1ccc2c(c1)OCO2,-0.0915
19,COc1ccc(CCNC(=O)N2c3ccccc3Sc3ccccc32)cc1,-0.197
20,O=C(NCCOc1cccc(Cl)c1Cl)c1cc(-n2cnnc2)ccc1Cl,-0.00528
21,Cc1ccc2[nH]c(=O)c(C(c3nnnn3CCc3ccccc3)N3CCOCC3)cc2c1 (stereo not drawn),0.0263
22,O=C(CCc1ccccc1)NNC(=S)NC(=O)c1ccc(Cl)cc1,active: 3.03
23,COc1ccc2c(c1)CCc1c(C(=O)Nc3c(C)nn(Cc4ccccc4)c3C)noc1-2,0.0597

row,SMILES,z-score
1,O=C(CCCCCNc1nc(=S)[nH]c2ccccc12)NCCc1c[nH]c2ccccc12,-0.261
2,C=CCNC(=O)c1onc(CSc2ccc(F)c(F)c2)c1C(=O)O,-0.335
3,COc1cccc(NC(=S)N/N=C2\CC(C)(C)Oc3ccc(O)cc32)c1,-0.0142
4,COC(=O)c1ccc(NCCC(=O)O)cc1,-0.0634
5,CC(NC(=O)Cc1ccccc1)c1ccc(F)cc1 (stereo not drawn),-0.0267
6,C(=N\N1CCN(C2c3ccccc3-c3ccccc32)CC1)/c1ccncc1,-0.148
7,COc1ccccc1-c1coc2cc(OC(=O)/C=C/c3ccccc3)ccc2c1=O,0.68
8,COc1cc(/C=N/n2c(C)n[nH]c2=S)ccc1OCc1ccc(F)cc1,0.484
9,C=CCn1c(SCc2nc3ccccc3[nH]2)nnc1-c1ccccn1,-0.0849
10,C/C(=C\c1ccco1)C1Nc2cccc3cccc(c23)N1,-1.15
11,Cc1ccc(Cn2ccc(NC(=O)c3c(-c4ccccc4Cl)noc3C)n2)cc1,-0.614
12,COC(=O)C(C)N(C(=O)c1ccc(C(=O)c2ccccc2)cc1)c1c(C)cccc1C (stereo not drawn),-0.568
13,Cc1ccc(-c2ccc(/C=C3\C(=O)ON=C3c3ccccc3)o2)c([N+](=O)[O-])c1,0.0567
14,COc1ccc(S(=O)(=O)N(C)CC(=O)N2CCN(C)CC2)cc1C,0.16
15,COc1ccc(NC(=O)Nc2ccc(C)cc2OC(F)F)cc1OC,-0.0436
16,S=C(Nc1ccc(Cl)cc1)NN1CCOCC1,0.0745
17,O=C(NCc1ccc(F)cc1)C1CC(=O)N(CCc2ccccc2)C1 (stereo not drawn),0.722
18,Cc1cccc(OCC(=O)Nc2nc3ccc([N+](=O)[O-])cc3s2)c1,2.05
19,CC(=O)Nc1ccc2c(c1)nc(CCN1CCC(C)CC1)n2C,0.591
20,CCOC(=O)N1CCN(C(=O)CN(c2ccc(Oc3ccccc3)cc2)S(C)(=O)=O)CC1,0.55
21,CCOC(=O)Nc1nc(-c2ccccc2)c(C(=O)c2ccccc2)s1,-0.809

# Source: PubChem BioAssay AID488969 (Vanderbilt High Throughput Screening Facility, 2010)
